Source: the supplement of paper PMC7238544
Counter-ions that a name gives are not always drawn. ± gives the standard deviation of the averaged measurements. The list shows a part of the results.

Tests used:
Conditions in all cases: priming compound concentration 100 µM
[1] = tested on: hAMSC donor 1; experiment: Hoechst total cell count ratio vs vehicle control; higher = more cells (less toxicity)
[2] = tested on: hAMSC donor 2; experiment: as above
[3] = tested on: hAMSC donor 1; experiment: transgenic luciferase activity (RLU/mg protein) fold change vs vehicle control (ratio); higher = more transgene expression
[4] = tested on: hAMSC donor 2; experiment: as above
[5] = tested on: hAMSC donor 1; experiment: transfection efficiency (EGFP+ cells / Hoechst count) fold change vs vehicle control (ratio); hAMSC are human adipose-derived mesenchymal stem cells given an EGFP-luciferase plasmid by lipofection; higher = enhanced transfection
[6] = tested on: hAMSC donor 2; experiment: as above
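Throughout, for Hoechst total cell count ratio vs vehicle control: compound added 30 min before Lipofectamine 3000 lipoplex delivery, triplicate-well means expressed against DMSO vehicle control wells of the same 96-well plate.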
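Throughout, for transfection efficiency (EGFP+ cells / Hoechst count) fold change vs vehicle control: compounds added 30 min before Lipofectamine 3000 lipoplex transfection, triplicate means relative to DMSO vehicle wells on the same plate, luciferase RLU normalized to BCA total protein.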
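Throughout, for transgenic luciferase activity (RLU/mg protein) fold change vs vehicle control: compounds in DMSO added 30 min before Lipofectamine 3000 transfection of pEGFP-Luc in 96-well plates, values are means of triplicate wells over DMSO vehicle wells on the same plate.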

| Compound | Hoechst total cell count ratio [1] | Hoechst total cell count ratio [2] | transgenic luciferase activity [3] | transgenic luciferase activity [4] | transfection efficiency [5] | transfection efficiency [6] |
| --- | --- | --- | --- | --- | --- | --- |
| NCC(=O)CCC(=O)O [Aminolevulinic acid] | 1.04 ± 0.22 | 1.44 ± 0.17 | 0.782 ± 0.024 | 0.63 ± 0.099 | 0.911 ± 0.34 | 0.809 ± 0.14 |
| C[C@@H](c1ncncc1F)[C@](O)(Cn1cncn1)c1ccc(F)cc1F [Voriconazole] | 1.35 ± 0.32 | 1.21 ± 0.33 | 1.56 ± 1.3 | 0.727 ± 0.14 | 0.95 ± 0.16 | 1.16 ± 0.16 |
| CC(=O)Nc1ccc(CC(=O)O)cc1 [Actarit] | 1.23 ± 0.092 | 1.06 ± 0.13 | 0.623 ± 0.55 | 0.921 ± 0.049 | 0.999 ± 0.28 | 0.974 ± 0.16 |
| CC(C)Cc1ccc(C(C)C(=O)O)cc1 (stereo not given) [Ibuprofen] | 0.894 ± 0.18 | 1.37 ± 0.37 | 1.06 ± 0.59 | 0.566 ± 0.39 | 0.836 ± 0.24 | 0.803 ± 0.26 |
| Cn1c(NCCN(CCO)CCCc2ccc([N+](=O)[O-])cc2)cc(=O)n(C)c1=O [Nifekalant hydrochloride] | 1.27 ± 0.32 | 1.25 ± 0.17 | 0.599 ± 0.16 | 0.58 ± 0.13 | 1.44 ± 0.23 | 0.809 ± 0.17 |
| Oc1c(Cl)cc(Cl)c2cccnc12 [Chloroxine] | 0.604 ± 0.035 | 0.169 ± 0.042 | 2.19 ± 0.93 | 0.393 ± 0.35 | 0.754 ± 0.36 | 1.35 ± 0.96 |
| O=C1CC2(CCCC2)CC(=O)N1CCNCC1COc2ccccc2O1 (stereo not given) | 1.62 ± 0.22 | 1.34 ± 0.3 | 0.396 ± 0.2 | 0.294 ± 0.06 | 0.932 ± 0.11 | 1.07 ± 0.35 |
| CN1CCCC(n2nc(Cc3ccc(Cl)cc3)c3ccccc3c2=O)CC1 (stereo not given) [Azelastine hydrochloride] | 0.671 ± 0.052 | 0.287 ± 0.096 | 2.36 ± 1.3 | 0.434 ± 0.071 | 0.631 ± 0.21 | 0.602 ± 0.12 |
| CS(=O)(=O)OCCCCOS(C)(=O)=O [Busulfan] | 1.1 ± 0.086 | 1.48 ± 0.096 | 0.848 ± 0.38 | 3 ± 0.65 | 0.964 ± 0.14 | 1.03 ± 0.12 |
| CCOc1ccc2ccccc2c1C(=O)N[C@@H]1C(=O)N2[C@@H]1SC(C)(C)[C@@H]2C(=O)O [Nafcillin sodium] | 1.02 ± 0.11 | 0.916 ± 0.13 | 4.07 ± 3.8 | 3.14 ± 1.1 | 1.77 ± 0.16 | 1.65 ± 0.16 |
| COc1cccc2c1C(=O)c1c(O)c3c(c(O)c1C2=O)C[C@@](O)(C(=O)CO)C[C@@H]3O[C@H]1C[C@H](N)[C@H](O)[C@H](C)O1 [Doxorubicin hydrochloride] | 0.171 ± 0.1 | 0.108 ± 0.014 | 0.000327 ± 0.00011 | 0.000887 ± 0.00071 | 0.971 ± 0.7 | 1.05 ± 0.47 |
| CC1(C)C[C@@H]1C(=O)N/C(=C\CCCCSC[C@H](N)C(=O)O)C(=O)O [Cilastatin sodium] | 0.974 ± 0.091 | 0.983 ± 0.096 | 1.55 ± 0.33 | 1.29 ± 0.19 | 1.37 ± 0.2 | 1.03 ± 0.18 |
| C#C[C@]1(O)CC[C@H]2[C@@H]3CCC4=Cc5oncc5C[C@]4(C)[C@H]3CC[C@@]21C [Danazol] | 1.3 ± 0.14 | 0.879 ± 0.12 | 1.18 ± 1.3 | 0.333 ± 0.085 | 0.448 ± 0.19 | 0.809 ± 0.21 |
| NS(=O)(=O)c1cc2c(cc1C(F)(F)F)NC(Cc1ccccc1)NS2(=O)=O (stereo not given) [Bendrofluazide] | 0.985 ± 0.041 | 0.933 ± 0.18 | 1.18 ± 0.13 | 0.949 ± 0.36 | 0.638 ± 0.14 | 1.18 ± 0.2 |
| CN(C)CCCC1(c2ccc(F)cc2)OCc2cc(C#N)ccc21 (stereo not given) [Citalopram hydrobromide] | 1.02 ± 0.27 | 1.05 ± 0.051 | 0.442 ± 0.092 | 0.477 ± 0.07 | 1.2 ± 0.44 | 0.921 ± 0.15 |
| CN1CCN(c2c(F)cc3c(=O)c(C(=O)O)cn4c3c2SCC4)CC1 [Rufloxacin hydrochloride] | 1.09 ± 0.12 | 0.839 ± 0.18 | 1.64 ± 1.2 | 0.329 ± 0.089 | 1.04 ± 0.32 | 1.74 ± 0.56 |
| Nc1nc(N)c2nc(-c3ccccc3)c(N)nc2n1 [Triamterene] | 1.07 ± 0.062 | 1.08 ± 0.12 | 0.362 ± 0.32 | 0.166 ± 0.031 | 0.771 ± 0.71 | 0.633 ± 0.19 |
| OC[C@H]1O[C@@H](Oc2cc(O)cc(/C=C/c3ccc(O)cc3)c2)[C@H](O)[C@@H](O)[C@@H]1O [Piceid] | 1.29 ± 0.098 | 0.923 ± 0.2 | 0.595 ± 0.15 | 0.54 ± 0.19 | 1.07 ± 0.2 | 1.39 ± 0.19 |
| CC(N/C(=N\C#N)Nc1ccncc1)C(C)(C)C (stereo not given) [Pinacidil monohydrate] | 1.05 ± 0.023 | 1.3 ± 0.44 | 1.37 ± 0.098 | 1.07 ± 0.23 | 1.14 ± 0.32 | 0.947 ± 0.12 |
| CC(=O)OCC(=O)[C@@]1(O)CC[C@H]2[C@@H]3C[C@H](C)C4=CC(=O)C=C[C@]4(C)[C@H]3[C@@H](O)C[C@@]21C [Methylprednisolone acetate] | 1.16 ± 0.22 | 1.48 ± 0.47 | 4.8 ± 1.2 | 2.29 ± 0.51 | 1.7 ± 0.19 | 1.27 ± 0.12 |
| C[C@H](CCC(=O)O)[C@H]1CC[C@H]2[C@@H]3C(=O)C[C@@H]4CC(=O)CC[C@]4(C)[C@H]3CC(=O)[C@]12C [Dehydrocholic acid] | 1.13 ± 0.075 | 0.804 ± 0.083 | 0.949 ± 0.3 | 2.02 ± 0.32 | 1.17 ± 0.45 | 2.79 ± 0.75 |
| C[C@H]1C[C@@H]2[C@H]([C@@H](O)C[C@@]3(C)[C@H]2CC[C@]3(O)C(=O)CO)[C@@]2(C)C=CC(=O)C=C12 [Methylprednisolone] | 1.08 ± 0.11 | 1.52 ± 0.32 | 5.93 ± 0.6 | 3.08 ± 0.8 | 2.87 ± 0.41 | 1.49 ± 0.27 |
| NS(=O)(=O)c1cc(C(=O)O)c(NCc2ccco2)cc1Cl [Furosemide] | 1.27 ± 0.22 | 1.05 ± 0.11 | 1.41 ± 0.13 | 0.693 ± 0.095 | 0.754 ± 0.27 | 1.21 ± 0.21 |
| O=C(O)CCCc1ccccc1 [4-Phenylbutyric acid] | 1.2 ± 0.08 | 0.813 ± 0.059 | 0.558 ± 0.32 | 1.1 ± 0.47 | 0.987 ± 0.097 | 1 ± 0.098 |
| CC(C)C[C@H](NC(=O)[C@@H](COC(C)(C)C)NC(=O)[C@H](Cc1ccc(O)cc1)NC(=O)[C@H](CO)NC(=O)[C@H](Cc1c[nH]c2ccccc12)NC(=O)[C@H](Cc1cnc[nH]1)NC(=O)[C@@H]1CCC(=O)N1)C(=O)N[C@@H](CCCNC(=N)N)C(=O)N1CCC[C@H]1C(=O)NNC(N)=O [Goserelin acetate] | 1.06 ± 0.021 | 1.44 ± 0.38 | 0.907 ± 0.47 | 2.64 ± 0.66 | 0.986 ± 0.22 | 1.27 ± 0.054 |
